Measured values: the RNAGym collection of RNA variant scans (doi:10.1073/pnas.2313332121)
Variants at the background level are over-represented here.

B1: TPR 5TU (parent)
chain: GGAUCUUCUCGAUCUAACAAAAAAGACAAAUCUGCCACAAAGCUUGAGAGCAUCUUCGGAUGCAGAGGCGGCAGCCUUCGGUGGCGCGAUAGCGCCAACGUUCUCAACUAUGACACGCAAAACGCGUGCUCCGUUGAAUGGAGUUUAUCAUG

Variants of: B1
Assay: polymerase ribozyme fitness, log enrichment relative to wild type (log ratio); higher = more active; in vitro selection for triplet polymerase activity
Method in brief: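 Mutant libraries of each subunit of a heterodimeric triplet polymerase ribozyme were built by PCR and transcribed. Each library went through one round of in vitro selection in triplicate: annealing with biotinylated primer, partner subunit and triplets, frozen incubation at −7 °C, gel excision of extended constructs, streptavidin-bead capture and RT-PCR. Input and output libraries were Illumina-sequenced; only genotypes with ≥10 input reads and ≥1 read per output were kept. Fitness is log2(genotype enrichment/wild-type enrichment), using inverse-variance-weighted replicate averages.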

| Variant | polymerase ribozyme fitness (log ratio) |
| --- | --- |
| GGAUCUUCUCGAUCUAACAAAAAAGACAAAUCUGCCACAAAGCUUGUGAGCAUCUUCGGAUGCAGAGGCGGCAGCCUUCGGUGACGCGAUAGCGCCAACGUUCUGAACUAUGACACGCAAAACGCGUGCUCCGUUGAAUGGAGUUUAUCAUG [A47U G84A C105G] | ≤ -4.2 |
| GGAUCUUCUCGAUCUAACAAAAAAGACAAAUCUGCCACAAAGCUUGGGAGCAUCAUCGGAUGCAGAGGCGGCAGCCUUCGGUGGCGCGAUAGCGCCAACGUUCUCGACUAUGUCACGCAAAACGCGUGCUCCGUUGAGUGGAGUUUAUCAUG [A47G U55A A106G A113U A138G] | ≤ -4.2 |
| GGAUCUUCUCGAUCUAACAAAAAAGACAAAUCUGCCACAAAGCUUGGGAGCAUCUUCGGAUGCAGAGACGGCAGCCUUCGGUGACGCGAUAGCGCCAACGUUCUCAACUAUGACACUCAAAACGCGUGCUCCGUUGAAUAGAGUUUAUCAUG [A47G G68A G84A G117U G140A] | ≤ -4.2 |
| GGAUCUUCUCGAUCUAACAAAAAAGACAAAUCUGCCACAAAGCUUGUGAGCAUCUUAGGAUGCAGAGGCGGCAGCCUUCGGUGGCGUGAUAGAGCCAACGUUCUCAAUUAUGACACGCAAAACGCGUGCUCCGUUGAAUGCAGUUUAUCAUG [A47U C57A C87U C93A C108U G141C] | ≤ -4.2 |
| GGAUCUUCUCGAUCUAACAAAAAAGACAAAUCUGCCACAAAGCUUGGGAGCAUCUUCGGAUGCAGAGGCGGCAGCCUUCGGUGGAGCGAUGGCGCCAACGUUCGCUACUAUGACACGCAAAACGCGUGCUCCGUUGAAGGGAGUUUAUCAUG [A47G C85A A91G U104G A106U U139G] | ≤ -4.2 |
| GGAUCUUCUCGAUCUAACAAAAAAGACAAAUCUGCCACAAAGCUUGGGAGCAUCUUCGGGUGCCGACGCGGCCGCCUUCGGUGGUGCGAUAGUGCCAACGUUCUCAACUAUGACACGCAAAACGCGUGCUCCGUUGAAUGGAGUUUAUCAUG [A47G A60G A64C G67C A73C C85U C93U] | ≤ -4.2 |
| GGAUCUUCUCGAUCUAACAAAAAAGACAAAUCUGCCACAAAGCUUGAAAGCAUCUUCGGAUGCAGAGGCGGCAGCCUUCCGUGGCGCGCUAGCGCCAACGUUCUCAACUAUGACACGCAAAACGCGUGCUCCGUUGAAUGGAGUUUAUCAUG [G48A G80C A89C] | ≤ -4.2 |
| GGAUCUUCUCGAUCUAACAAAAAAGACAAAUCUGCCACAAAGCUUGGGAGCAUCUUCGGAUGCAGAGGCGGCAGGCUUCGAUGGCGCGAUAGCGCCAACGUUCUCAACUAUGACACGCAUAACGCGUGCUCCGUUGAAUGGAGUUUAUCAUG [A47G C75G G81A A120U] | ≤ -4.2 |
| GGAUCUUCUCGAUCUAACAAAAAAGACAAAUCUGCCACAAAGCUUGUGAGCAUCAUCGGAUGCAGAGGCGGCUGCGUUCGGUCGCGCGAUAGUGCCAACGUUCUCAACUAUGACACGCAAAACGCGUGCUCCGUUGAAUUGUGUUUAUCAGG [A47U U55A A73U C76G G83C C93U G140U A142U U151G] | ≤ -4.2 |
| GGAUCUUCUCGAUCUAACAAAAAAGACAAAUCUGCCACAAAGCUUGAAAGCAACUUCGGAUGCAGAGGCGCCAGCCUUCGGUGGCGCGAUAGCGCCAACGUUCUCAACUAUGACACGCCAAACGCGUGCUCCGUUGAAUGGAGUUUAUCAUG [G48A U53A G71C A119C] | ≤ -4.2 |
| GGAUCUUCUCGAUCUAACAAAAAAGACAAAUCUGCCACAAAGCUUGAAAGCAUCUUCGGAUGCAGAGGCGGCAGCCUUCGGUGGCGCGAUAGCGCCAACGUUCUCAACUAUGAUACGCAAAACGCGUGCUCCGUUGAAUGGAGUUUAUCUUG [G48A C114U A150U] | ≤ -4.2 |
| GGAUCUUCUCGAUCUAACAAAAAAGACAAAUCUGCCACAAAGCUUGGGAACAUCUUCGGAUGCAGAGGCGGCAGCCUUCGGUGGCGGGAUAGCGCCAACGUUCUCAACUGUGACACGCAAAACGUGUGCUCCGUUGAAUGGAGUUUAUCAUG [A47G G50A C87G A110G C125U] | ≤ -4.2 |
| GGAUCUUCUCGAUCUAACAAAAAAGACAAAUCUGCCACAAAGCUUGUGAGCAUCUUCGAAUGCAGAGGCGGCAGCCUUCGGUGACGCGAUAGCGCCAACGUUCUCAACUAUGACACGCAAAACGCGUGCUCCGUUGAAUGGAGUUUAUGAUG [A47U G59A G84A C149G] | ≤ -4.2 |
| GGAUCUUCUCGAUCUAACAAAAAAGACAAAUCUGCCACAAAGCUUGGGAGCAUCUUUGGAUGCAGAGGCGGCAGCCUUCGGUGACGCGAUAGCGCCAACGUUCUCAACUAUGACACGCAAAACGCGUGCUCCGUUGAAUGGAGUUUAGCAUG [A47G C57U G84A U148G] | ≤ -4.2 |
| GGAUCUUCUCGAUCUAACAAAAAAGACAAAUCUGCCACAAAGCUUGAAGGCAUCUUCGGAUGCAGAGGCGGCAGCCUUCGGUGGCGCUAUAGCGCUAACGUUCUCAACUAUGACACGCAAAACGCGUGCUCCGUUGAAUGGAGUUUAUCAUG [G48A A49G G88U C96U] | ≤ -4.2 |
| GGAUCUUCUCGAUCUAACAAAAAAGACAAAUCUGCCACAAAGCUUGAAAACAUCUUCGGAUGCAGAGGCGGCAGCCUUCGGUGGCGCGAUAGCGCCAACGUUCUCAACUAUGACACGCAAAUCGCGUGCUCCGUUGAAUGGAGUUUAUCGUG [G48A G50A A122U A150G] | ≤ -4.2 |
| GGAUCUUCUCGAUCUAACAAAAAAGACAAAUCUGCCACAAAGCUUGUGAGCAUCUUCGGAUGCAGAGGCGGCAGCCUUCGGUGGGGCGAUUGCGCCAACGUUCUCAACUAUGACACGCAAAACGCGUGCUCCGUUGAAUGGAGUUUAUCAUG [A47U C85G A91U] | ≤ -4.2 |
| GGAUCUUCUCGAUCUAACAAAAAAGACAAAUCUGCCACAAAGCUUGUGAGCAUCUUCGGAUGCAGAGGCGGCAGCCUUAGGUGGCGCGAUAGCGCCAACGUUCUCAACUAUGAAACGCAAAACGCGUGAUCCGUUGAAUGGAGUUUAUCAUG [A47U C79A C114A C129A] | ≤ -4.2 |
| GGAUCUUCUCGAUCUAACAAAAAAGACAAAUCUGCCACAAAGCUUGUGAGCAUCUUCGGAUGCAGAGGCGGCAGCGUUCGGUGGCGCGAUAGCGCUAACGUUCUCAACUAUGACAGGCAAAACGCGUGCUCCGUUGAAUGGAGUUUAACAUG [A47U C76G C96U C116G U148A] | ≤ -4.2 |
